Experimental data: PubChem BioAssay AID360 (National Center for Advancing Translational Sciences (NCATS), 2006)
Hit rate of the full screen: of about 48,000 compounds, about 550 (1.1%) were called active. Another 4% or so got no clear call; they are omitted. Cut-off read from the data, not from the text of the source: active = potency below about 15 µM; inconclusive = mostly about 16 µM to 33 µM; inactive = weaker than that. This is one part of the list.

Target: Lysosomal acid glucosylceramidase (Homo sapiens) (UniProt P04062)
Assay: Glucocerebrosidase;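 note: the screen sought inhibitors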
Details: purified enzyme, resorufin glucoside fluorescence (screen aimed at inhibitors), 20 min
Outline: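 Wild-type enzyme at 0.2 nM final in 50mM citric acid/KH2PO4, 10mM sodium taurocholate, 0.01% tween-20, pH 5.9, with resorufin beta-D-glucopyranoside at 30 uM final. Compounds titrated, 20 min at RT, red fluorescence read; AC50 from titration.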
Potency is the fitted concentration of half-maximal effect.

Sequence of UniProt P04062 (P04062 whole entry, looked up): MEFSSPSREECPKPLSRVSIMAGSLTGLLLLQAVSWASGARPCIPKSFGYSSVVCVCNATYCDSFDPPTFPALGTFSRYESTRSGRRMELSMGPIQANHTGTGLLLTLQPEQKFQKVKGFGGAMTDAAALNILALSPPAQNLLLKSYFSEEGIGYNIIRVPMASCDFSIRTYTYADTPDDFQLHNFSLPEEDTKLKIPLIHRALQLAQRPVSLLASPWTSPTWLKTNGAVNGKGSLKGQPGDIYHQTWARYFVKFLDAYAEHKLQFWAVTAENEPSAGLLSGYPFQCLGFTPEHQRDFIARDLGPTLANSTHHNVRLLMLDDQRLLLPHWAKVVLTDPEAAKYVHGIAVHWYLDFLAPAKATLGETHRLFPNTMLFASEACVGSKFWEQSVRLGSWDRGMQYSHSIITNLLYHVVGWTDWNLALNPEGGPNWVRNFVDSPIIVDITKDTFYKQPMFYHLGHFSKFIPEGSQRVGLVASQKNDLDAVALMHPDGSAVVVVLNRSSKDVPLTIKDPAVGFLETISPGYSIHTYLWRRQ

Potency, active:
O=C(CSc1nc2ccccc2o1)c1ccc2c(c1)OCCO2 13.6 µM

Potency, inactive:
C=CCN1C(=NC(=O)CCCC(=O)O)SC2CS(=O)(=O)CC21 (stereo not drawn) > 76.9 µM
CCc1ccccc1N(CC)C(=O)CCc1nc(-c2ccc(C)cc2)no1 > 76.9 µM
Cc1ccc(C(=O)C2CCN(CC(=O)NC3CCCCC3)CC2)cc1 > 76.9 µM
O=C(CCNC(=O)c1ccc(Br)o1)NCc1ccc(Cl)cc1 > 76.9 µM
CCOc1ccc(NC(=O)Cn2nnc(-c3ccccc3F)n2)cc1 > 76.9 µM
Cc1ccc(CCN2CC(C(=O)NCCCN3CCOCC3)CC2=O)cc1 (stereo not drawn) > 76.9 µM
CCN(C(=O)c1cccc(F)c1)c1ccccc1C > 76.9 µM
CCOc1ccc(C(=O)Nc2c3c(nn2C(C)(C)C)CSC3)cc1OCC > 76.9 µM
COc1ccc(N2C(=O)C3C4C=CC(C4)C3C2=O)nn1 (stereo not drawn) > 76.9 µM
Cn1cccc1C(=O)NC(=O)CSc1cccc[n+]1[O-] > 76.9 µM
O=C(CN(c1ccc(F)cc1)S(=O)(=O)c1ccccc1)NCc1ccco1 > 76.9 µM
C=CCn1c(COc2cccc3ccc(C)nc23)nnc1SCC(N)=O > 76.9 µM
O=S(=O)(c1ccc(Cl)cc1Br)N1CCCCC1 > 76.9 µM
CC(C)c1[nH]nc2c1C(c1cccnc1)C(C#N)=C(N)O2 (stereo not drawn) > 76.9 µM
O=C(NCCCN1CCOCC1)c1ccc(CS(=O)(=O)Cc2ccc(Cl)cc2)o1 > 76.9 µM
COc1ccc2c(c1)c1nnc(SCC(=O)N3C(C)CCCC3C)nc1n2C (stereo not drawn) > 76.9 µM
CNC(=O)C1C2C=CC3(O2)C1C(=O)N(CCOC)C3C(=O)NCc1ccc(OC)cc1 (stereo not drawn) > 76.9 µM
CC1=C(C(=O)OC(C)C)C(c2ccc(F)cc2)NC(=O)N1 (stereo not drawn) > 76.9 µM
Clc1ccc(-n2nnnc2Sc2ncnc3sccc23)cc1 > 76.9 µM
Nc1nc(CSCc2ccccc2)nc(N2CCOCC2)n1 > 76.9 µM
CCOc1ccccc1N1CCN(Cc2ccc(OC)c(OC)c2OC)CC1 > 76.9 µM
CCOC(=O)CSc1nnc(CNC(=O)c2cccs2)n1-c1cccc(C)c1 > 76.9 µM
CS(=O)(=O)N(CC(=O)NCc1ccc2c(c1)OCO2)Cc1ccccc1 > 76.9 µM
COc1ccc(CCNC(=O)CSc2cc(=O)[nH]c(N)n2)cc1OC > 76.9 µM
Cn1c(-c2ccc(F)cc2)cnc1NCc1ccccc1 > 76.9 µM
CC(C)c1ccc(CNc2ccc(N3CCOCC3)cc2)cc1 > 76.9 µM
Cc1cccc(Nc2nc3c(c(=O)n(C)c(=O)n3C)n2Cc2ccccc2)c1 > 76.9 µM
COc1cc(C)c(S(=O)(=O)N2CCCC2)cc1C > 76.9 µM
CCOC(=O)c1sc2nc(N3CCOCC3)c3c(c2c1N)CCC3
C=CCn1c(=O)c2ccccc2n2c(SCc3nc(N)nc(Nc4ccccc4C)n3)nnc12 > 76.9 µM
CC(C)OC(=O)CSc1ncnc2c1cnn2-c1ccccc1 > 76.9 µM
CCOC(=O)c1ccccc1NC(=O)CSc1nccn1C > 76.9 µM
Cn1c(=O)cc(OCC(=O)N2CCN(c3cccc(C(F)(F)F)c3)CC2)c2ccccc21 > 76.9 µM
CC(C)c1nnc(SCc2ccc(CSc3nnc(C(C)C)n3N)cc2)n1N > 76.9 µM
Cc1c(C(=O)O)[nH]c2c1C(=O)CC(c1ccc(Cl)cc1)C2 (stereo not drawn) > 76.9 µM
O=C(N1CCOCC1)N(CCN1CCOCC1)Cc1cccc(Cl)c1 > 76.9 µM
CN(C)CCCNc1cc(Cl)c(S(=O)(=O)N2CCCCC2)cc1C(=O)O > 76.9 µM
CCOC(=O)COn1c(=O)c(-c2cccs2)[n+]([O-])c2ccccc21 > 76.9 µM
COc1cccc(C(=O)Nc2c3c(nn2-c2cccc(C)c2C)CS(=O)(=O)C3)c1OC > 76.9 µM
O=C(CCn1cnc2ccccc2c1=O)Nc1ccc(S(=O)(=O)N2CCCC2)cc1 > 76.9 µM
COc1ccc(NC(=O)c2cc(-c3ccc(OC)c(OC)c3)on2)cc1OC > 76.9 µM
COc1ccc(NC(=O)CN(C)S(=O)(=O)c2ccc3c(c2)OCCO3)c2ncccc12 > 76.9 µM
O=C(O)CCC(=O)N(Cc1ccco1)c1nc(-c2ccccc2)cs1 > 76.9 µM
CCCCSc1nsc(NC(C)=O)n1 > 76.9 µM
O=C(Nc1ccc(Cl)cn1)c1cnn2cccnc12 > 76.9 µM
CCn1c(C)c(C(C)=O)c(N2CCC(C(N)=O)CC2)nc1=S > 76.9 µM
CCN(CC)CCCN1C(=O)c2oc3ccccc3c(=O)c2C1c1cccc(OC)c1OC (stereo not drawn) > 76.9 µM
CCn1nnnc1-c1ccc(OC)c(S(=O)(=O)N2CCCCC2)c1 > 76.9 µM
COc1ccc(C2=NO[C@@H]3C(=O)N(C4CCCCC4)C(=O)[C@H]23)cc1OC > 76.9 µM
CCn1c(SCC(=O)Nc2cccc(C)n2)nnc1-c1ccco1 > 76.9 µM
CCOc1ccc(NC(=O)c2ccccc2O)cc1 > 76.9 µM
Cc1cc(C(=O)COc2ncnc3sccc23)c(C)n1C > 76.9 µM
COc1cc(C(=O)Nc2ccc(S(=O)(=O)Nc3cc(C)on3)cc2)cc(OC)c1OC > 76.9 µM
Cc1ccc(O)c(-c2cc(C(F)(F)C(F)F)[nH]n2)c1 > 76.9 µM
Cc1ccc(C(=O)N2CCN(S(C)(=O)=O)C2)cc1 > 76.9 µM
Oc1cccc(Nc2ncnc3ccccc23)c1 > 76.9 µM
Cc1ccccc1-c1nc(-c2cccnc2)no1 > 76.9 µM
